Data on eleven compounds can be found in the supplement of paper PMC4604168 (melanoma cell lines).

This is one part of the list. Most values come without repeats; read them as rough.

Some test systems named below: WM115; WM1716; WM1745; WM3526; WM3619; WM451Lu.
Holding throughout (test): cell count relative to DMSO control; melanoma cells; higher = more viable cells
Common to all, as to details: library dose: low library concentration; 72 h
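Also: cell number obtained by counting DAPI-stained nuclei in high-throughput microscope images with image analysis software, screen run in 1,536-well plates.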

For `CC1(C)CCC(c2ccc(Cl)cc2)=C(CN2CCN(c3ccc(C(=O)NS(=O)(=O)c4ccc(N[C@H](CCN5CCOCC5)CSc5ccccc5)c(S(=O)(=O)C(F)(F)F)c4)cc3)CC2)C1` + O=C(O)c1ccc2c(c1)nc(Nc1cccc(Cl)c1)c1ccncc12 [CX4945] (first compound 0.4 µM, partner dose 0.4 µM), the cell count in the test on WM115 was 67.9%; with WM1716, 30.8%; in the test with WM1745, 8.25%; in the test on WM3526, 66.9%; in the test on WM3619 it was 78.8%; with WM451Lu it was 64.2%.
On to `Cc1ccc(Nc2nccc(N(C)c3ccc4c(C)n(C)nc4c3)n2)cc1S(N)(=O)=O` [Pazopanib] + O=C(Nc1cccc(Cl)c1)Nc1ncc(CCNc2ncnc3ccsc23)s1 [SNS314] (first compound 0.4 µM, partner dose 0.0008 µM), for which the cell count is 83.6% with WM115; 71.4% in the test on WM1716; 90.8% with WM1745; 84.1% in the test on WM3526; 86.5% in the test on WM3619; 99.2% with WM451Lu.
Take `Cc1ccc(Nc2nccc(N(C)c3ccc4c(C)n(C)nc4c3)n2)cc1S(N)(=O)=O` [Pazopanib] + Cn1c(Nc2ccc(C(F)(F)F)cc2)nc2cc(Oc3ccnc(-c4ncc(C(F)(F)F)[nH]4)c3)ccc21 [CHIR265] (first compound 0.4 µM, partner dose 0.08 µM): the cell count with WM115 came out at 68.1%; in the test with WM1716 it was 79.7%; with WM1745, 84%; in the test on WM3526, 78%; with WM3619, 86.9%; in the test with WM451Lu, 84.7%.
For the compound `CC1(C)CCC(c2ccc(Cl)cc2)=C(CN2CCN(c3ccc(C(=O)NS(=O)(=O)c4ccc(N[C@H](CCN5CCOCC5)CSc5ccccc5)c(S(=O)(=O)C(F)(F)F)c4)cc3)CC2)C1` + N#Cc1c(O)c2c(-c3ccc(-c4ccccc4O)cc3)csc2[nH]c1=O [A769662] (first compound 0.4 µM, partner dose 2 µM), the cell count in the test with WM115 is 97.4%; with WM1716, 65%; in the test with WM1745 it was 6.6%; in the test with WM3526 it was 87.4%; with WM3619, 85.5%; with WM451Lu, 81.4%.
With `CC1(C)CCC(c2ccc(Cl)cc2)=C(CN2CCN(c3ccc(C(=O)NS(=O)(=O)c4ccc(N[C@H](CCN5CCOCC5)CSc5ccccc5)c(S(=O)(=O)C(F)(F)F)c4)cc3)CC2)C1` + COc1ccc(C2=N[C@@H](c3ccc(Cl)cc3)[C@@H](c3ccc(Cl)cc3)N2C(=O)N2CCNC(=O)C2)c(OC(C)C)c1 [Nutlin-3] (first compound 0.4 µM, partner dose 0.1 µM), the cell count in the test with WM115 was 78%; with WM1716, 71.7%; in the test with WM1745 it was 10.9%; with WM3526, 96%; in the test on WM3619, 86.6%; with WM451Lu, 65.3%.
`O=C(/C=C/c1cccnc1)NCCCCC1CCN(C(=O)c2ccccc2)CC1` + Cn1cnc2c(F)c(Nc3ccc(Br)cc3Cl)c(C(=O)NOCCO)cc21 [selumetinib] (first compound 0.01 µM, partner dose 0.015 µM): the cell count came to 108% in the test on WM115; 93.1% with WM1716; 91.5% in the test on WM1745; 91.9% in the test with WM3526; 81.5% with WM3619; 98.6% with WM451Lu.
Turning to `Cc1ccc(Nc2nccc(N(C)c3ccc4c(C)n(C)nc4c3)n2)cc1S(N)(=O)=O` [Pazopanib] + OCCn1cc(-c2cnc3nnn(Cc4ccc5ncccc5c4)c3n2)cn1 [PF04217903] (first compound 0.4 µM, partner dose 1 µM), the cell count with WM115 came to 108%; with WM1716, 89.4%; in the test on WM1745, 97%; with WM3526, 96.3%; in the test on WM3619, 117%; in the test with WM451Lu, 81.8%.
Consider `CC1(C)CCC(c2ccc(Cl)cc2)=C(CN2CCN(c3ccc(C(=O)NS(=O)(=O)c4ccc(N[C@H](CCN5CCOCC5)CSc5ccccc5)c(S(=O)(=O)C(F)(F)F)c4)cc3)CC2)C1` + CN(c1ncccc1CNc1nc(Nc2ccc3c(c2)CC(=O)N3)ncc1C(F)(F)F)S(C)(=O)=O [PF562271] (first compound 0.4 µM, partner dose 0.08 µM), for which the cell count in the test on WM115 is 78.6%; in the test on WM1716, 75.2%; with WM1745, 7.71%; in the test on WM3526, 101%; in the test with WM3619, 90.2%; in the test with WM451Lu it was 66.5%.
Take `O=C(/C=C/c1cccnc1)NCCCCC1CCN(C(=O)c2ccccc2)CC1` + COc1ccc(Cl)c(Nc2nc3ccccc3nc2NS(=O)(=O)c2cccc(NC(=O)C(C)(C)N)c2)c1 [XL147] (first compound 0.01 µM, partner dose 0.8 µM): the cell count in the test on WM115 was found to be 97.9%; with WM1716, 92.9%; with WM1745 it was 99.4%; in the test with WM3526, 115%; in the test with WM3619, 77.3%; with WM451Lu, 90.9%.
Consider `O=C(/C=C/c1cccnc1)NCCCCC1CCN(C(=O)c2ccccc2)CC1` + Cn1sc(=O)n(Cc2ccccc2)c1=O [TDZD-8] (first compound 0.01 µM, partner dose 0.4 µM), for which the cell count in the test on WM115 was determined as 94%; with WM1716, 98.3%; with WM1745, 114%; in the test on WM3526, 112%; in the test on WM3619 it was 102%; in the test on WM451Lu, 105%.
Take `O=C(/C=C/c1cccnc1)NCCCCC1CCN(C(=O)c2ccccc2)CC1` + c1cc(-c2cnn3cc(-c4ccc(OCCN5CCCCC5)cc4)cnc23)ccn1 [Dorsomorphin] (first compound 0.01 µM, partner dose 0.4 µM): the cell count with WM115 was 103%; with WM1716, 95.3%; in the test with WM1745, 95.3%; with WM3526, 91%; in the test on WM3619, 88.5%; in the test on WM451Lu, 111%.
